The campaign covered roughly 240,000 compounds. About 20 (0.008%) were called active. Inconclusive results, whose numbers are uncertain, are shown with a selection of clear calls. The call rests on the fitted dose curve; in most records, active means well fitted inhibition curve with a large enough effect; inconclusive means small, poorly fitted or top-dose-only effect, or effect the other way; inactive means flat fitted curve, though single readings scatter. No potency is given beside an inconclusive call; the fits are too rough.
Each compound was assayed against Alpha-galactosidase A (Homo sapiens) (UniProt P06280) (assay: qHTS Assay for Inhibitors and Activators of Human alpha-Galactosidase From Spleen Homogenate). Conditions: 4MU-alpha-Gal fluorescence, 40 min; series mostly up to 80 µM.
Method in brief: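 Human spleen homogenate (1 ug) was the enzyme source, with 4-methylumbelliferyl-alpha-D-galactopyranoside (1 mM final) in pH 5.0 citrate buffer with 0.01% Tween-20. Compounds were titrated; after 40 min at 37C, NaOH/glycine stop, 4-MU fluorescence read; AC50 from Hill fits.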
Potency means the concentration at half of the fitted maximal effect; tags describe the fitted curve by direction and shape.

Chain of UniProt P06280 (P06280 whole entry, looked up): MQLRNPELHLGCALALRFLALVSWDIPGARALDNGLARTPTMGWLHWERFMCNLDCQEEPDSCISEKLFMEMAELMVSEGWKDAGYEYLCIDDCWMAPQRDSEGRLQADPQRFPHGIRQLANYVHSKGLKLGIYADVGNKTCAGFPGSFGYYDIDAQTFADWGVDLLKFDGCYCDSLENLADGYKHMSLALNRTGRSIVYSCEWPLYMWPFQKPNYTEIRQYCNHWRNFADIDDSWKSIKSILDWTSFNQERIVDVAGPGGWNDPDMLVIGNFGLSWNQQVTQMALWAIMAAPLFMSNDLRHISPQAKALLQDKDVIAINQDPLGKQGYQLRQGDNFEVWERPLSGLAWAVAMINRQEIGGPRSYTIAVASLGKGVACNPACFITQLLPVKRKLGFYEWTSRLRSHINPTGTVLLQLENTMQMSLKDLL

Compound | Potency
Cc1nc2ccccc2c(=O)n1-c1ccc(F)cc1F | inconclusive [inhibitor, single point]
Cc1ccc(S(=O)(=O)NCC2CCC(C(=O)NCCCN3CCOCC3)CC2)cc1 (stereo not given) | inconclusive [inhibitor, single point]
CC(C)Br | inactive
CCCCCCCCCCCCCl | inactive
CC(N)c1cccc(Cl)c1Cl (stereo not given) | inconclusive [inhibitor, full curve, poor fit]
Cc1ccc(C)c(OCC(=O)N2CCCN(C)CC2)c1 | inactive
COc1ccc(-n2c(-c3ccco3)nc3ccccc3c2=O)cc1 | inactive
CN(C)C(=O)Oc1ccc[n+](C)c1 | inconclusive [inhibitor, full curve, poor fit]
CC12C=CC(=O)C=C1CCC1C2=CCC2(C)C1CC[C@@H]2C(=O)CN1CCN(c2cc(N3CCCC3)nc(N3CCCC3)n2)CC1 (stereo not given in full) | inconclusive [activator, full curve, poor fit]
CN1CCc2cc3c(cc2C1O)OCO3 (stereo not given) | inconclusive [activator, partial curve]
C[C@@H]1Cc2c(Cl)cc(C(=O)N[C@H](Cc3ccccc3)C(=O)O)c(O)c2C(=O)O1 | inconclusive [activator, partial curve]
O=c1c(O)c(-c2ccc(O)c(O)c2)oc2c(O)c(O)cc(O)c12 | inconclusive [inhibitor, partial curve, poor fit]
O=C(O)Cc1ccccc1 | inactive
CC[n+]1c(-c2ccccc2)c2cc(N)ccc2c2ccc(N)cc21 | inconclusive [inhibitor, single point]
CC[C@@]1(O)C(=O)OCc2c1cc1n(c2=O)Cc2cc3c(O)cccc3nc2-1 | inconclusive [activator, full curve]
CC(C)C(=O)Nc1ccc([N+](=O)[O-])c(C(F)(F)F)c1 | inconclusive [inhibitor, partial curve]
COC(=O)c1ccc(C(=O)OC)c(NC(=O)Oc2ccccc2)c1 | inconclusive [activator, partial curve]
c1ccc2nc3ccccc3cc2c1 | inconclusive [activator, partial curve]
CCC(C)N1C(=O)NC(=O)C2(Cc3c(ccc4ccccc34)N(C)C2)C1=O (stereo not given) | inconclusive [activator, single point]
CCCCCn1c(N)c(C(=O)NCCN2CCOCC2)c2nc3ccccc3nc21 | inconclusive [activator, partial curve]

— PubChem BioAssay AID2107 (National Center for Advancing Translational Sciences (NCATS), 2009)
